Reference: PubChem BioAssay (NCI)
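Values below derive from 48-hour exposures of cells grown in 96-well plates, with endpoints linearly interpolated between the two concentrations bracketing the appropriate inhibition level. GI50 is the concentration that inhibits growth by half.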 A number of entries come with more than one value. This list holds those alone. An entry can have further records. A record mostly stands for its own series of concentrations, not given here; a value can be the end of its range.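 Definition used: TGI = concentration required for complete inhibition of growth.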 A tag in brackets gives the origin of a value. Letters count within one entry.

What was measured:
Experiment in all cases: inhibition of tumour cell growth, NCI panel, 48 h
[1] = tested on: A498 renal
[2] = tested on: K-562 leukemia
[3] = tested on: LOX IMVI melanoma
[4] = tested on: HOP-62 NSCLC
[5] = tested on: RPMI-8226 leukemia
[6] = tested on: T-47D breast
[7] = tested on: SN12C renal
[8] = tested on: PC-3 prostate
[9] = tested on: IGROV1 ovarian
[10] = tested on: EKVX NSCLC
[11] = tested on: UACC-62 melanoma
[12] = tested on: KM20L2 colon
[13] = tested on: U251 CNS
[14] = tested on: SF-268 CNS
[15] = tested on: MALME-3M melanoma
[16] = tested on: SNB-19 CNS
[17] = tested on: NCI-H226 lung
[18] = tested on: HCC-2998 colon
[19] = tested on: A549 NSCLC
[20] = tested on: MDA-MB-231 breast
[21] = tested on: HS 578T breast
[22] = tested on: SK-OV-3 ovarian
[23] = tested on: MDA-N
[24] = tested on: SK-MEL-5 melanoma
[25] = tested on: CAKI-1 renal
[26] = tested on: NCI-H460 lung
[27] = tested on: SK-MEL-2 melanoma
[28] = tested on: MDA-MB-435
[29] = tested on: DMS 114 small cell lung
[30] = tested on: HOP-18 NSCLC
[31] = tested on: TK-10 renal
[32] = tested on: LXFL 529 NSCLC
[33] = tested on: OVCAR-5 ovarian

## COc1cccc2c1C(=O)c1c(O)c3c(c(O)c1C2=O)C[C@@](O)(C(C)=O)C[C@@H]3OC1CC(N)C(O)C(C)O1 (some centres undefined)
[1]
  TGI: 5.42 µM, 784 nM, 394 nM, 633 nM [sample A] and 561 nM [sample B]
[2]
  TGI: 166 nM, > 5.01 µM [sample A, 1 test] and 1.64 µM, 262 nM [sample A, mean of 2 tests] and 3.79 µM [sample A, mean of 36 tests] and 3.66 µM [sample A, mean of 71 tests] and 219 nM [sample B, 1 test]
[3]
  TGI: 380 nM, 310 nM, 31.2 nM, 204 nM, 5.12 µM [sample A] and 484 nM [sample B]
[4]
  TGI: > 5.01 µM [sample A, 1 test] and 487 nM, 258 nM, 196 nM [sample A, mean of 2 tests] and 274 nM [sample A, mean of 36 tests] and 295 nM [sample A, mean of 66 tests] and 200 nM [sample B, mean of 2 tests]
[5]
  TGI: 149 nM, > 5.01 µM [sample A, 1 test] and 256 nM, 234 nM [sample A, mean of 2 tests] and 2.2 µM [sample A, mean of 34 tests] and 1.59 µM [sample A, mean of 53 tests] and 2.4 µM [sample B, mean of 2 tests]
[6]
  TGI: 2.46 µM, 282 nM, 2.07 µM [sample A, mean of 2 tests] and 1.99 µM [sample A, mean of 25 tests] and 1.09 µM [sample B, mean of 2 tests]
[7]
  TGI: 12.6 µM [sample A, 1 test] and 3.15 µM, 5.41 µM, 210 nM [sample A, mean of 2 tests] and 1.3 µM [sample A, mean of 41 tests] and 1.28 µM [sample A, mean of 68 tests] and 794 nM [sample B, mean of 2 tests]
[8]
  TGI: 1.76 µM, 897 nM, 999 nM, 885 nM [sample A] and 447 nM [sample B]
[9]
  TGI: 1.69 µM, 6.66 µM [sample A, 1 test] and 1.74 µM, 469 nM [sample A, mean of 2 tests] and 2.16 µM [sample A, mean of 41 tests] and 3.12 µM [sample A, mean of 63 tests] and 1.35 µM [sample B, mean of 2 tests]
[10]
  TGI: 3.93 µM, 7.18 µM [sample A, 1 test] and 1.74 µM, 1.88 µM [sample A, mean of 2 tests] and 1.76 µM [sample A, mean of 39 tests] and 3.07 µM [sample A, mean of 65 tests] and 2.45 µM [sample B, mean of 2 tests]
[11]
  TGI: 229 nM, 139 nM, > 5.01 µM [sample A, 1 test] and 299 nM [sample A, mean of 2 tests] and 206 nM [sample A, mean of 42 tests] and 320 nM [sample A, mean of 65 tests] and 242 nM [sample B, mean of 2 tests]
[12]
  GI50: > 5.01 µM [1 test] and 123 nM [mean of 38 tests]
[13]
  TGI: 1.17 µM, > 5.01 µM [sample A, 1 test] and 624 nM, 516 nM [sample A, mean of 2 tests] and 739 nM [sample A, mean of 40 tests] and 1.07 µM [sample A, mean of 65 tests] and 10.3 µM [sample B, mean of 2 tests]
[14]
  TGI: > 5.01 µM [sample A, 1 test] and 477 nM, 423 nM, 398 nM [sample A, mean of 2 tests] and 1.02 µM [sample A, mean of 38 tests] and 1.32 µM [sample A, mean of 70 tests] and 619 nM [sample B, mean of 2 tests]
[15]
  TGI: 53.9 nM, 423 nM, 525 nM, 196 nM, 349 nM, > 5.01 µM [sample A] and 161 nM [sample B]
[16]
  TGI: > 5.01 µM [sample A, 1 test] and 883 nM, 1.09 µM, 3.66 µM [sample A, mean of 2 tests] and 3.19 µM [sample A, mean of 39 tests] and 2.38 µM [sample A, mean of 66 tests] and 1.85 µM [sample B, mean of 2 tests]
[17]
  TGI: 193 nM, 143 nM, 276 nM, 175 nM, > 5.01 µM [sample A] and 187 nM [sample B]
[18]
  TGI: 689 nM, 996 nM, 414 nM, 1.26 µM, 818 nM, > 5.01 µM [sample A] and 904 nM [sample B]
[19]
  TGI: 18.9 µM [1 test] and 1.89 µM [mean of 37 tests] and 2.64 µM [mean of 65 tests]
[20]
  TGI: 2.65 µM, 1.23 µM, 769 nM [sample A, mean of 2 tests] and 2.37 µM [sample A, mean of 28 tests] and 1.19 µM [sample B, mean of 2 tests]
[21]
  TGI: 800 nM, 1.6 µM, 597 nM, 297 nM [sample A] and 1.63 µM [sample B]
[22]
  TGI: 9.21 µM [sample A, 1 test] and 5.09 µM, 9.18 µM, 3.63 µM [sample A, mean of 2 tests] and 2.8 µM [sample A, mean of 36 tests] and 4.83 µM [sample A, mean of 64 tests] and 152 nM [sample B, 1 test]
[23]
  TGI: 1.39 µM, 971 nM, 737 nM, 260 nM [sample A] and 477 nM [sample B]
[24]
  TGI: 266 nM, > 5.01 µM [sample A, 1 test] and 199 nM [sample A, mean of 2 tests] and 290 nM [sample A, mean of 40 tests] and 478 nM [sample A, mean of 63 tests] and 159 nM [sample B, mean of 2 tests]
[25]
  TGI: 1.96 µM, 25.3 µM, 223 nM, 1.21 µM, 17.8 µM
[26]
  TGI: 160, 345, 92.9, 263 nM [sample A] and 165 nM [sample B]
[27]
  TGI: > 5.01 µM [sample A, 1 test] and 1.17 µM, 917 nM, 176 nM [sample A, mean of 2 tests] and 670 nM [sample A, mean of 41 tests] and 811 nM [sample A, mean of 63 tests] and 344 nM [sample B, mean of 2 tests]
[28]
  TGI: 626 nM [sample A, 1 test] and 677 nM, 334 nM [sample A, mean of 2 tests] and 936 nM [sample A, mean of 23 tests] and 305 nM [sample B, mean of 2 tests]
[29]
  GI50: > 5.01 µM [1 test] and 86.5 nM [mean of 35 tests]
  TGI: 340 nM, 304 nM, > 5.01 µM
[30]
  TGI: 1.66 µM, 658 nM, 9.08 µM
[31]
  TGI: 193 nM, > 5.01 µM [sample A, 1 test] and 14.3 µM [sample A, mean of 14 tests] and 5.95 µM, 1.59 µM [sample A, mean of 2 tests] and 6.53 µM [sample A, mean of 70 tests] and 772 nM [sample B, mean of 2 tests]
[32]
  GI50: > 5.01 µM [1 test] and 87 nM [mean of 11 tests]
[33]
  TGI: 1.75 µM, 1.18 µM, 1.05 µM, 913 nM, 15.5 µM [sample A] and 13.3 µM [sample B]
